The whole screen tested about 270,000 compounds, of which about 620 (0.23%) were called active. Inconclusive means that the source gave no clear call. Such entries were picked first, then a sample of the others. Calls come from the whole dose curve; as a rule, active = well fitted inhibition curve with a large enough effect in the polarisation, with a control signal flat (not every such curve was filed as active); inconclusive = small, poorly fitted or top-dose-only effect, or effect the other way, or a change in a side signal; inactive = no such curve, though single readings can be large or run the other way; the % refers to the polarisation. Potencies of inconclusive entries are doubtful fits and often do not repeat. A note “side channel” means that the fit belongs to a control or component signal, not to the main read-out.
Molecular target: Menin (Homo sapiens) (UniProt O00255)
Chain of UniProt O00255 (O00255 whole entry, looked up): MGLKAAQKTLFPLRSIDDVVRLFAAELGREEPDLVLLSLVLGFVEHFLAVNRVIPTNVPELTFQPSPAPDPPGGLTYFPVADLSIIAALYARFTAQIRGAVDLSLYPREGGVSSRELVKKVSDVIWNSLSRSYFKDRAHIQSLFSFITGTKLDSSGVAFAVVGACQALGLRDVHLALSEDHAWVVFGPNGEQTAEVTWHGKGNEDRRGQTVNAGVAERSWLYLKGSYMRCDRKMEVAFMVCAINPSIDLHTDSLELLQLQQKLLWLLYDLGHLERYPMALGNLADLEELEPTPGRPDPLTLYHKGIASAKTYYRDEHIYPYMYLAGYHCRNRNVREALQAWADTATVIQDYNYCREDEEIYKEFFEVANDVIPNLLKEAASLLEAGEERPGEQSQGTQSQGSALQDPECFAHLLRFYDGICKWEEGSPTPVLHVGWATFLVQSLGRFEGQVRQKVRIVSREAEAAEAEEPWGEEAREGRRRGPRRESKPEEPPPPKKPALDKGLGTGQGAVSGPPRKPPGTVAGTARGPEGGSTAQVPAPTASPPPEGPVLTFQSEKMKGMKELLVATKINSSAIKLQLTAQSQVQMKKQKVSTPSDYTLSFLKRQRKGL
Test: qHTS Assay for Inhibitors Targeting the Menin-MLL Interaction in MLL Related Leukemias: Competition With Texas Red Labeled MLL-derived Mutant Peptide; for FP activity change, negative = inhibition: % of control where 0% means no effect
Settings: fluorescence polarization; FP activity change, negative = inhibition: at 61.6 µM (top of the series)
Potency is the fitted concentration of half-maximal effect; tags give direction and shape of the fitted curve or compound fluorescence and quenching.

SMILES | Potency | FP activity change, negative = inhibition
CCN1CCN(C(=O)c2cc3nc(-c4ccccc4)cc(C(F)(F)F)n3n2)CC1 | inconclusive: 28.2 µM [inhibitor, partial curve] | 
COc1ccccc1NC(=O)c1nc[nH]c1C(=O)Nc1ccccc1OC | inconclusive: 14.1 µM [fluorescent, side channel, partial curve] | 
C/C(=N\Nc1ccccc1[N+](=O)[O-])c1ccc(N2CCOCC2)cc1 | inconclusive: 1.41 µM [quencher, side channel, full curve, poor fit] | 
Nc1ccc(C(=O)N/N=C\c2ccc(OC(=O)c3ccccc3Cl)cc2)cc1 | inconclusive: 39.8 µM [fluorescent, single point] | 
CCN(CC)S(=O)(=O)c1ccc2nc(NC(=O)c3ccco3)sc2c1 | inconclusive: 28.2 µM [quencher, side channel, single point] | 
CCCCOc1ccc(C(=O)N2CCN(CC(=O)Nc3ccc(C)cc3)CC2)cc1OC | inconclusive: 1.41 µM [inhibitor, partial curve] | 
CC1=NN(C(N)=S)C(=O)C1N=Nc1ccc(Br)cc1 (configuration not stated) | inconclusive: 11.2 µM [quencher, side channel, partial curve] | 
CCCCn1nnnc1SCC(=O)NC1CCCCC1 | inconclusive: 0.708 µM [quencher, side channel, full curve, poor fit] | 
O=C(CN1CCC(Cc2ccccc2)CC1)NCCc1ccc(F)cc1 | inconclusive: 11.2 µM [fluorescent, side channel, partial curve] | 
Cc1cccc(N=C2NC(=O)/C(=C/C=C/c3ccco3)S2)c1 | inconclusive: 22.4 µM [quencher, side channel, partial curve] | 
Cc1cccc(C)c1-n1cccc1/C=C1/C(=N)N2C(=NC1=O)SN=C2S(C)(=O)=O | inconclusive: 11.2 µM [quencher, side channel, partial curve, poor fit] | 
COc1cc(/C=N/NC(=O)CCn2c3ccccc3c3ccccc32)cc(OC)c1OC | inactive | 
Cc1cccc(NC(=O)c2ccccc2Br)n1 | inactive | 
COc1ccc(C(=O)N2CCCC(c3nc(-c4ccc(OC)c(OC)c4)no3)C2)c(OC)c1 (configuration not stated) | inactive | 
Nc1c(C(=O)NCc2ccco2)c2nc3ccccc3nc2n1CCc1ccc(F)cc1 | inconclusive: 11.2 µM [quencher, side channel, partial curve] | 
Cc1cc(=O)[nH]c(SCC(=O)Nc2cccc3ccccc23)c1C#N | inconclusive: 35.5 µM [quencher, single point] | 
COC(=O)c1ccc(N2CCN(c3ccccc3)CC2)c(NC(=O)C2CC2)c1 | inconclusive: 7.08 µM [inhibitor, single point] | 
O=C(CSc1nc2ccc(Cl)cc2[nH]1)Nc1ccc2c(c1)CCC2 | inconclusive: 22.4 µM [quencher, side channel, partial curve] | 
COc1ccccc1N1CCN(CC(=O)c2ccc3ccn(C(C)=O)c3c2)CC1 | inactive | 

SMILES | Potency | FP activity change, negative = inhibition
O=C(O)c1ccc2c(c1)C(=O)N(c1ccc(Nc3ccccc3)cc1)C2=O | inconclusive: 22.4 µM [quencher, side channel, partial curve] | 
Cc1cc(C)c(SCCc2ccncc2)c(C)c1 | inconclusive: 17.8 µM [fluorescent, side channel, partial curve] | 
CCOC(=O)Cn1c(=NC(=O)c2ccc([N+](=O)[O-])s2)sc2ccccc21 | inconclusive: 7.94 µM [quencher, side channel, full curve] | 
COc1ccc(CC(=O)Nc2nc3ccc(F)cc3s2)cc1S(=O)(=O)N1CCOCC1 | inconclusive: 31.6 µM [quencher, side channel, single point] | 
O=C(Cc1c(F)cccc1Cl)Nc1ncc([N+](=O)[O-])s1 | inconclusive: 28.2 µM [quencher, side channel, partial curve] | 
CC(C)c1nc2sc3c(SCC(=O)NCc4ccco4)ncnc3c2c2c1CCC2 | inconclusive: 28.2 µM [quencher, side channel, single point] | 
CCN(CC)C(=O)CSc1nc2cc(OC)c(OC)cc2c(=O)n1Cc1ccc(Cl)cc1 | inconclusive: 11.2 µM [fluorescent, side channel, partial curve] | 
Cc1ncc([N+](=O)[O-])n1CCOC(=O)Nc1ccc(Cl)c(Cl)c1 | inconclusive: 17.8 µM [quencher, side channel, partial curve] | 
CCOC(=O)c1sc(NC(=O)c2ccncc2)c(C#N)c1C | inconclusive: 44.7 µM [quencher, side channel, partial curve] | 
CCC(C)(C(=O)NC1CCCCC1)N(CC1CCCO1)C(=O)CNC(=O)c1ccccc1 (configuration not stated) | inconclusive: 5.62 µM [fluorescent, side channel, full curve, poor fit] | 
CCC1Oc2ccccc2N(CC(=O)NCCC2=CCCCC2)C1=O (configuration not stated) | inconclusive: 8.91 µM [fluorescent, side channel, partial curve] | 
CC(O)C1CCC2C3CCC4CC(O)CCC4(C)C3CCC12C (configuration not stated) | inactive | 
CC(C)=CCC/C(C)=C/CO/N=C1/C[C@@H](O)[C@@H](O)[C@@H]2[C@@H]3C(=O)N(c4cccc(Oc5ccccc5)c4)C(=O)[C@H]3CC[C@@H]12 |  | inactive: -6.51% [at 11.7 µM]
CCOc1cc(/C=C2\C(=N)N3N=C(CC)SC3=NC2=O)ccc1OCCOc1ccc(NC(C)=O)cc1 | inconclusive: 39.8 µM [fluorescent, side channel, single point] | 
Cc1ccc(Cl)cc1N1CCN(S(=O)(=O)N2CCCCC2)CC1 | inconclusive: 15.8 µM [fluorescent, side channel, partial curve] | 
COc1ccccc1C1Nc2ccccc2NC2=C1C(=O)CC(C)(C)C2 (configuration not stated) | inactive | 
CCOC(=O)CN(Cc1cc(OC)cc(N(C)C)c1OC)C(=O)C1CC(CO[Si](C)(C)C(C)(C)C)=CN1C(=O)OC(C)(C)C (configuration not stated) | inconclusive: 2.24 µM [fluorescent, side channel, full curve, poor fit] | 
COc1ccc(CN2CCN(C(=O)CCC(=O)Nc3nnc(CC(C)C)s3)CC2)cc1F | inconclusive: 1 µM [inhibitor, partial curve] | 
CC(C)C(NC(=O)/C=C/c1ccc(F)cc1)C(C)C | inconclusive: 39.8 µM [inhibitor, single point] | 

SMILES | Potency | FP activity change, negative = inhibition
O=[N+]([O-])c1cccc(/C=N/Nc2nc(C(Cl)(Cl)Cl)nc3ccccc23)c1 | inconclusive: 7.94 µM [quencher, side channel, full curve] | 
O=C(Nc1ccccc1)OCc1cn(-c2ccc(Cl)cc2)nn1 | inconclusive: 20 µM [inhibitor, single point] | 
Cc1[nH]c2ccccc2c1SCCNC(=O)c1ccc(S(=O)(=O)N2CCCC2)cc1 | inconclusive: 17.8 µM [quencher, side channel, single point] | 
CCN(CC)CCCN=C1N[C@@H](c2ccccc2)C(C(=O)OC)=C(C)N1CC | inconclusive: 39.8 µM [inhibitor, single point] | 
Cc1ccc(C(c2nnnn2Cc2cccs2)N2CCN(Cc3ccc4c(c3)OCO4)CC2)cc1 (configuration not stated) | inactive | 
Cc1cc(C)c([N+](=O)[O-])cc1-c1ccc(/C=N/NC(=O)c2nonc2N)o1 | inconclusive: 25.1 µM [quencher, side channel, partial curve] | 
O=C(NCCSc1c[nH]c2ccccc12)c1c(F)cccc1F | inconclusive: 25.1 µM [quencher, side channel, partial curve] | 
COc1ccc(C(CNC(=O)COc2ccc(Br)cc2F)N2CCCC2)cc1 (configuration not stated) | inconclusive: 20 µM [fluorescent, side channel, partial curve, poor fit] | 
CCn1c(SCC(=O)N2CCCc3ccccc32)nc2c1c(=O)n(C)c(=O)n2C | inconclusive: 10 µM [inhibitor, partial curve] | 
CCC1CCCCN1CCCNC(=O)c1ccc2c(c1)N(Cc1ccc(F)cc1)C(=O)c1ccccc1S2=O (configuration not stated) | inconclusive: 25.1 µM [inhibitor, partial curve] | 
S=C(NNc1ccnc2cc(Cl)ccc12)Nc1ccccc1Cl | inconclusive: 2.82 µM [quencher, side channel, partial curve] | 
C#CCn1cc(/C=N/NC(=O)c2cc3ccccc3o2)c2ccccc21 | inconclusive: 31.6 µM [quencher, side channel, single point] | 
Oc1ccc(Nc2nc(-c3ccccc3O)nc3ccccc23)cc1 | inconclusive: 3.98 µM [quencher, side channel, full curve] | 
CCCCc1nc2c(c3c1C[C@H](C)OC3)CN(C(=O)Nc1ccc(OC)cc1)CC2 |  | inactive: -7.78% [at 11.7 µM]
Cc1n[nH]c(=S)n1/N=C/c1c(O)ccc2ccccc12 | inconclusive: 28.2 µM [inhibitor, single point] | 
Cn1c(SCc2nc(-c3cccs3)no2)nnc1C1CCCCC1 | inconclusive: 35.5 µM [inhibitor, single point] | 
CC(C)CC(c1nnnn1Cc1ccccc1)N1CCN(C(=O)c2ccco2)CC1 (configuration not stated) | inconclusive: 39.8 µM [inhibitor, partial curve, poor fit] | 
CC1(C)Cc2c(cnn2-c2cccc(F)c2)C(NC(=O)CCc2cnccn2)C1 (configuration not stated) | inactive | 
O=C(O)c1sccc1S(=O)(=O)Nc1ccccc1N1CCCCC1 | inconclusive: 25.1 µM [quencher, side channel, partial curve] | 

— PubChem BioAssay AID1768 (National Center for Advancing Translational Sciences (NCATS), 2009)
